In the supplement of paper PMC12217912:
This is one part of the list. The full chains were built here from the parent and the listed change. Values near 0.05 are background.

B1: TEV protease; numbered along this chain (parent)
chain: MGESLFKGPRDYNPISSSICHLTNESDGHTTSLYGIGFGPFIITNKHLFRRNNGTLVVQSLHGVFKVKDTTTLQQHLVDGRDMIIIRMPKDFPPFPQKLKFREPQREERICLVTTNFQTKSMSSMVSDTSCTFPSGDGIFWKHWIQTKDGQCGSPLVSTRDGFIVGIHSASNFTNTNNYFTSVPKNFMELLTNQEAQQWVSGWRLNADSVLWGGHKVFMVKPEEPFQPVKEATQL

Variants of: B1
Assay: raw area under fraction-flipped curve 0-4 h after induction (AUC4h, not background-subtracted), DNA-recorder readout of cleavage of the substrate (dimensionless); higher = more cleavage of the substrate by the protease variant
Conditions: temperature: 34 °C; time window: 0-4 h after rhamnose induction
Protocol: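 In vivo DNA recorder in E. coli TOP10(DE3) ΔrhaA at 34 °C. Each TEVp single-site mutant (parent TEVp 0) is paired with a single-site variant of the 7-mer TEVs (canonical ENLYFQ|S). The substrate sits between flexible linkers in a Bxb1-sfGFP-TEVs-SsrA fusion, so cleavage stabilises Bxb1 and speeds flipping of a recombination array, read by NGS. The value is the raw area under the fraction-flipped curve over 0-4 h after rhamnose induction (AUC4h), with ≥20 reads per time point. It is not background-subtracted; inactive controls average about 0.047.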
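Also: Bxb1 expression induced with 0.2% (w/v) L-rhamnose at OD600 near 0.5, cultures sampled hourly, flipped fraction per protease–substrate barcode pair counted by paired-end Illumina sequencing.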

| Variant | area with substrate CNLYFQS | area with substrate DNLYFQS | area with substrate FNLYFQS | area with substrate HNLYFQS | area with substrate INLYFQS | area with substrate KNLYFQS | area with substrate LNLYFQS | area with substrate MNLYFQS | area with substrate NNLYFQS | area with substrate PNLYFQS | area with substrate TNLYFQS | area with substrate VNLYFQS | area with substrate WNLYFQS | area with substrate YNLYFQS | area with substrate GNLYFQS | area with substrate RNLYFQS | area with substrate QNLYFQS | area with substrate SNLYFQS |
| --- | --- | --- | --- | --- | --- | --- | --- | --- | --- | --- | --- | --- | --- | --- | --- | --- | --- | --- |
| T30Y | 0.0668 | 0.0731 | 0.0632 | 0.0679 | 0.0587 | 0.0777 | 0.0696 | 0.0932 | 0.0823 | 0.0587 | 0.0629 | 0.068 | 0.0389 | 0.0754 | – | – | – | – |
| H29N | 0.0658 | 0.0381 | 0.063 | 0.0677 | 0.0625 | 0.0663 | 0.0623 | 0.0769 | 0.0483 | 0.0681 | 0.0626 | – | 0.0695 | 0.0696 | 0.051 | 0.0662 | – | – |
| H29C | 0.084 | 0.0791 | 0.0629 | 0.0705 | 0.0666 | 0.0592 | 0.0731 | 0.0698 | – | – | 0.08 | 0.0467 | 0.0611 | 0.0588 | – | – | 0.0629 | 0.0606 |
| I42A | 0.0463 | 0.0498 | – | 0.0535 | 0.0213 | 0.0563 | 0.048 | 0.0514 | – | 0.0424 | 0.0539 | – | 0.0451 | 0.0546 | – | 0.0453 | 0.0478 | – |
| I42L | 0.106 | 0.0837 | – | 0.0588 | 0.072 | – | 0.0688 | 0.0499 | – | 0.0787 | 0.0481 | 0.0712 | 0.0838 | 0.0588 | 0.0292 | – | – | 0.0793 |
| I42F | 0.0586 | 0.0577 | – | 0.0537 | 0.0578 | 0.0521 | – | – | – | 0.0514 | 0.0558 | – | 0.0513 | 0.0416 | 0.0537 | – | 0.0528 | – |
| I42R | 0.0552 | 0.0521 | – | 0.0462 | 0.0433 | 0.0472 | 0.0489 | 0.039 | – | 0.0463 | 0.0428 | – | 0.0462 | 0.0654 | 0.0558 | – | – | 0.0463 |
| I36W | 0.0444 | 0.0627 | – | 0.0521 | 0.0441 | 0.0623 | – | – | 0.0454 | 0.0559 | 0.049 | 0.0461 | 0.0567 | 0.049 | – | – | – | – |
| I36Y | 0.0409 | 0.0492 | – | 0.0401 | 0.0481 | – | 0.0347 | 0.0574 | 0.0519 | – | 0.0388 | 0.0515 | 0.0498 | – | – | 0.0443 | 0.0477 | – |
| I36S | 0.0689 | 0.0576 | 0.0416 | 0.0503 | 0.0498 | 0.0521 | 0.0489 | – | – | 0.0709 | 0.0639 | 0.0514 | 0.049 | 0.0434 | – | – | – | 0.0679 |
| I36M | 0.0774 | 0.12 | – | 0.107 | 0.0696 | 0.0731 | 0.0586 | 0.0566 | 0.047 | 0.0714 | 0.0708 | 0.0559 | 0.0608 | 0.0548 | 0.0666 | 0.0559 | – | 0.0592 |
| I36T | 0.0481 | 0.0723 | – | 0.0709 | – | – | 0.0649 | 0.0983 | 0.0563 | 0.0586 | 0.0558 | – | 0.0574 | 0.0456 | – | – | 0.0634 | 0.043 |
| I36H | 0.0453 | 0.0433 | – | 0.0512 | 0.0544 | 0.0526 | 0.0309 | 0.0409 | 0.0391 | 0.0473 | 0.0463 | 0.0396 | 0.0519 | 0.0282 | 0.0331 | – | 0.0481 | – |
| G37W | 0.0662 | 0.0576 | 0.0771 | 0.0651 | 0.0533 | 0.0572 | 0.0554 | – | – | 0.0607 | 0.06 | – | 0.0398 | 0.0473 | 0.0592 | – | – | – |
| G37I | 0.0593 | 0.0711 | 0.0563 | 0.0555 | – | 0.0472 | – | 0.0543 | – | 0.0495 | 0.0558 | – | 0.0552 | – | 0.0571 | – | – | 0.0554 |
| G37T | 0.0882 | 0.0808 | – | 0.0637 | 0.0303 | 0.0594 | 0.103 | 0.059 | 0.0466 | 0.0881 | 0.051 | – | – | 0.0631 | 0.0715 | – | – | 0.0556 |
| F49A | 0.0492 | 0.0505 | 0.0491 | 0.0506 | – | – | 0.0544 | 0.0552 | 0.0513 | 0.0514 | 0.0586 | 0.0582 | 0.0569 | 0.0532 | – | – | – | 0.0526 |
| F49M | 0.0676 | 0.0526 | 0.0536 | 0.0547 | 0.0562 | 0.0637 | 0.0603 | – | 0.0695 | 0.0588 | 0.0565 | 0.0899 | 0.0549 | 0.0415 | 0.0397 | 0.0529 | – | 0.0533 |
| F49I | 0.096 | 0.0727 | 0.0616 | 0.0604 | – | 0.0735 | 0.0531 | 0.0507 | 0.0577 | 0.0598 | 0.063 | 0.0626 | 0.0576 | – | 0.0585 | 0.0543 | – | – |
| S26W | 0.0542 | 0.103 | 0.0652 | – | 0.0535 | – | 0.047 | 0.0263 | 0.0625 | 0.0722 | 0.0628 | 0.0586 | 0.054 | – | – | – | – | – |
| N45T | 0.0661 | 0.0889 | 0.0288 | 0.0566 | – | 0.0785 | 0.0556 | 0.0579 | 0.0517 | 0.0667 | 0.062 | 0.0575 | 0.0538 | 0.0577 | 0.0614 | 0.0669 | – | 0.0564 |
| G28I | 0.0617 | 0.0614 | 0.0569 | 0.0546 | 0.0218 | 0.067 | 0.0571 | 0.0421 | – | 0.0621 | 0.064 | 0.0668 | 0.0431 | 0.0403 | 0.0643 | – | – | – |
| G28D | 0.0489 | 0.0835 | 0.0641 | 0.0629 | – | 0.0725 | 0.0622 | – | 0.0604 | 0.0684 | 0.0628 | 0.0356 | 0.055 | 0.0669 | 0.0498 | 0.0704 | – | 0.0518 |
| G39I | 0.0399 | 0.0323 | 0.021 | 0.0417 | 0.0489 | 0.0322 | 0.049 | – | 0.0457 | 0.0511 | 0.0415 | 0.0555 | 0.044 | 0.0457 | – | – | – | 0.225 |
| G39R | 0.0573 | 0.0529 | – | 0.0387 | – | – | 0.0554 | 0.036 | 0.0403 | 0.0403 | 0.0454 | 0.0587 | 0.046 | 0.0337 | 0.0472 | – | – | 0.0511 |
| G39M | 0.0458 | 0.0527 | 0.0219 | 0.0316 | – | 0.035 | 0.0456 | 0.0398 | – | 0.0311 | 0.0303 | – | 0.05 | 0.0457 | 0.0363 | – | – | – |
| G39E | 0.0337 | 0.0477 | – | 0.0429 | – | – | 0.0396 | – | 0.0446 | 0.0412 | 0.0367 | 0.0246 | 0.0478 | – | 0.0426 | 0.0356 | – | 0.0389 |
